Results published in PubChem BioAssay AID588855 (National Center for Advancing Translational Sciences (NCATS), 2011).
Several values for one entry are separate records, joined by “and”; a condition that tells them apart may be missing. Equal values may be shown once. Screen size: about 410,000 compounds; about 5,000 (1.2%) were called active. Inconclusive results, whose numbers are uncertain, are shown with a selection of clear calls. Calls come from the whole dose curve; as a rule, active = well fitted inhibition curve with a large enough effect; inconclusive = small, poorly fitted or top-dose-only effect; inactive = no such curve, though single readings can be large or run the other way. Where the call is inconclusive, the potency comes from a doubtful curve fit.

Assay: qHTS for Inhibitors of TGF-b; note: nearly all actives have a fitted effect of over 65% in size
Details: HepG2 CAGA-GFP TGF-b/SMAD3 reporter, GFP fluorescence, 18 h, TGF-beta stimulated, 500 pg/mL final; series mostly up to 46.1 µM; activity, negative = inhibition: at the top concentration
Summary of the method: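 Inhibition was scored as loss of TGF-beta-induced (500 pg/mL final, 18 hours, 37 degrees C) GFP in HEPG2 cells carrying a CAGA-GFP reporter, in DMEM with 1% FBS. Well GFP was summed per cell; Activity was normalised to unstimulated and stimulated DMSO wells, then concentration-response fitting.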
% is set by controls: 0 for no effect and ±100 for the full control effect; potency is the fitted concentration of half-maximal effect; tags give direction and shape of the fitted curve.

SMILES | Potency | activity, negative = inhibition
COc1ccc(C)cc1N(CC(=O)Nc1cccc(N(C)S(C)(=O)=O)c1)S(C)(=O)=O | inconclusive: 1.12 µM [inhibitor, full curve] | –
CSc1nsc(NC(=O)OCc2ccc(Cl)cc2)n1 | inconclusive: 31.6 µM [inhibitor, single point] | –
Cc1ccc(S(=O)(=O)/N=C2\C=C(Nc3cccc(C(=O)O)c3)C(=O)c3ccccc32)c(C)c1 | active: 12.6 µM | –
C=CCNC(=S)Nc1ccc(Br)cc1F | inconclusive: 28.2 µM [inhibitor, single point] | –
O=C(C1=COCCO1)N1CCN(S(=O)(=O)c2cccc(F)c2)CC1 | – | inactive: 10.6%
COc1cc2c(cc1OC)C(C)N(C(=O)Cn1ncc3c1-c1ccccc1OC3)CC2 (stereo not drawn) | inconclusive: 1.41 µM [inhibitor, partial curve, poor fit] | –
Cc1ccc(C)c(NC(=O)C2CCCN(S(=O)(=O)c3ccc4[nH]c(=O)ccc4c3)C2)c1 (stereo not drawn) | inconclusive: 15.8 µM [inhibitor, single point] and inconclusive: 22.4 µM [inhibitor, partial curve, poor fit] | –
CC(C)(C)NC(=O)NC(=O)CN1CCN(c2cccc(Cl)c2)CC1 | – | inactive: -20.3%
CCC1=NN(C(=O)C(=O)Nc2ccccc2OC)C(O)(C(F)(F)F)C1 (stereo not drawn) | inconclusive: 22.4 µM [inhibitor, single point] | –
Cc1ccccc1NC(=S)NC1(C)CCS(=O)(=O)C1 (stereo not drawn) | – | inactive: -5.68%
Cc1[nH]c2ccccc2c1/C=N/Nc1nncn1N | inconclusive: 35.5 µM [inhibitor, single point] | –
CCC(O)c1c(-c2ccccc2)nn(C)c1Cl (stereo not drawn) | inconclusive: 0.501 µM [inhibitor, partial curve, poor fit] | –
COC(=O)c1scc(S(=O)(=O)C(C)C)c1N/N=C(\C#N)C(=O)c1ccc(Cl)cc1 | inconclusive: 35.5 µM [inhibitor, single point] | –
COc1ccc(CN(C)Cc2nc3scc(-c4ccccc4)c3c(=O)[nH]2)cc1OC | inconclusive: 35.5 µM [inhibitor, partial curve, poor fit] | –
COc1ccc(-c2noc(-c3ccc(NC4CCCC4)c([N+](=O)[O-])c3)n2)cc1 | inconclusive: 1.26 µM [inhibitor, partial curve] | –
CCCCCSc1nnc(N)s1 | – | inactive: -20.6%
O=C(c1ccc(S(=O)(=O)NCc2ccco2)cc1)N1CCN(Cc2ccc3c(c2)OCO3)CC1 | inconclusive: 14.1 µM [inhibitor, single point] | –
CSc1nnc(-c2sc3cc(C(F)(F)F)cnc3c2-c2ccccc2)n1C | – | inactive: -54.3%
Cc1ccc(-c2nc(CS(=O)CC(=O)N3CCN(c4ccccc4)CC3)c(C)o2)cc1 (stereo not drawn) | inconclusive: 15.8 µM [inhibitor, single point] | –
CC1CCCC(NS(=O)(=O)c2cc(Br)cnc2N)C1C (stereo not drawn) | inconclusive: 35.5 µM [inhibitor, single point] | –
O=C(Cc1csc(NC(=O)Nc2ccc(Cl)cc2)n1)NCc1ccccn1 | inconclusive: 22.4 µM [inhibitor, single point] | –
CCn1ccc(C(=O)Nc2cccc(Cl)c2)n1 | – | inactive: 3.1%
CCOC(=O)c1ccc(S(=O)(=O)NC2CCC(C)CC2)cc1 (stereo not drawn) | inconclusive: 14.1 µM [inhibitor, single point] | –

SMILES | Potency | activity, negative = inhibition
Cc1cccc(COC(=O)CCCNC(=O)c2ccc(Cl)cc2)c1 | – | inactive: -7.91%
CCc1ccc(NC(=O)CSc2nnc(C3CC3)n2CC2CCCO2)cc1 (stereo not drawn) | inconclusive: 20 µM [inhibitor, single point] | –
CCOC1CC(C)(C)NC(=S)N1 (stereo not drawn) | – | inactive: 3.7%
COc1ccc(NC(=O)C(=O)NCCN2CCN(C(=O)c3ccc(C(C)(C)C)cc3)CC2)cc1 | – | inactive: -13.6%
Oc1c(Br)cc(Br)cc1-c1nc2ccccc2s1 | – | inactive: 7.49%
COc1ccc(CC(=O)Nc2cccc(C(C)=O)c2)cc1S(=O)(=O)N1CCOCC1 | – | inactive: -0.632%
Cc1ccsc1C(=O)NNC(=O)c1ccccc1F | inconclusive: 0.1 µM [inhibitor, full curve, poor fit] | –
COc1ccc2cc3cc(C(=O)NCCC(C)C)oc3nc2c1 | inconclusive: 3.98 µM [inhibitor, full curve] | –
Cc1nn(CC(C)C)c(=S)[nH]c1=O | inconclusive: 0.1 µM [inhibitor, full curve, poor fit] | –
COCCCNC(=O)CC1C[C@H](C(=O)N(C(C)C)C(C)C)[C@@]2(C)c3[nH]c4ccc(OC)cc4c3CCN2C1=O (stereo partly drawn) | inconclusive: 10 µM [inhibitor, partial curve, poor fit] | –
Cn1ncc2c(=O)n(/N=C/c3ccccc3)cnc21 | inconclusive: 1.41 µM [inhibitor, partial curve, poor fit] | –
Cc1cccc(C)c1Nc1c(-c2ccc(Cl)s2)nc2ncccn12 | inconclusive: 25.1 µM [inhibitor, single point] | –
CCOc1cc(/C=N/NC(=O)CNc2cccc(C)c2)ccc1OC(=O)c1ccccc1 | inconclusive: 6.31 µM [inhibitor, single point] | –
COc1ccc2oc(C(=O)Nc3ccc(S(=O)(=O)N(C)C4CCN(C)CC4)cc3)c(C)c2c1 | inconclusive: 22.4 µM [inhibitor, single point] | –
Cn1nnnc1Sc1ncnc2scc(-c3ccc(Br)cc3)c12 | inconclusive: 12.6 µM [inhibitor, partial curve, poor fit] | –
CCOc1cc(/C=C/c2ccc3cccc([N+](=O)[O-])c3n2)cc(Cl)c1O | inconclusive: 3.55 µM [inhibitor, full curve] | –
CCC(C)[C@H](NC(=O)NCc1ccccn1)C(=O)OC (stereo partly drawn) | inconclusive: 35.5 µM [inhibitor, single point] | –
O=C(NC1CCCCCC1)c1ccc([N+](=O)[O-])s1 | inconclusive: 35.5 µM [inhibitor, single point] | –
Cc1cccc(N(C(=O)c2snc(C(N)=O)c2N)C(C(=O)NCc2ccccc2)c2ccncc2)c1 (stereo not drawn) | inconclusive: 35.5 µM [inhibitor, single point] | –
Cc1nc2ccccc2c(=O)n1/N=C/c1ccccc1 | – | inactive: -1.46%
Cc1[nH]c2ccccc2c1C(=O)CSc1nc2ncc(Cl)cc2[nH]1 | inconclusive: 2.51 µM [inhibitor, full curve, poor fit] | –
CC(C)C(=O)OC1=CN(Cc2ccccc2)S(=O)(=O)c2ccccc21 | inconclusive: 17.8 µM [inhibitor, single point] | –
Cc1cc(C)c2nc(-c3ccccn3)cc(C(=O)Nc3cc(C)on3)c2c1 | inconclusive: 5.62 µM [inhibitor, partial curve, poor fit] | –

SMILES | Potency | activity, negative = inhibition
O=C(CSc1nc2c(cnn2-c2ccc(F)cc2)c(=O)[nH]1)Nc1ccc(Br)cc1 | inconclusive: 10 µM [inhibitor, partial curve, poor fit] | –
CSc1nnc2c3cc(C)ccc3n(Cc3ccccc3)c2n1 | – | inactive: 9.19%
CC(C)C(CCNC(=O)CC(Cc1ccccc1)c1ccco1)c1ccco1 (stereo not drawn) | inconclusive: 12.6 µM [inhibitor, partial curve] | –
Cc1ccc(NC(=O)CN(C)C(=O)c2ccc(NS(=O)(=O)c3ccc4[nH]c(=O)[nH]c4c3)cc2)cc1 | – | inactive: -5.65%
Cc1ccc(C)c(S(=O)(=O)N2CCC(c3nc4c(nnn4Cc4ccc5c(c4)OCCO5)c(=O)[nH]3)CC2)c1 | inconclusive: 17.8 µM [inhibitor, single point] | –
O=C(Nc1ccccc1)Nc1nnc(Cc2ccc([N+](=O)[O-])cc2)s1 | inconclusive: 6.31 µM [inhibitor, partial curve] | –
Cc1ccc2sc(N(CCCN(C)C)C(=O)c3ccc(S(=O)(=O)N4CCCCCC4)cc3)nc2c1C | inconclusive: 35.5 µM [inhibitor, single point] | –
COCC1CCCCN1C(=O)c1ccc(OC)c(OC2CCN(C(C)C)CC2)c1 (stereo not drawn) | – | inactive: -2.62%
O=C(NCc1ccco1)c1cc(-c2cccs2)on1 | – | inactive: -1.3%
Cc1ccc2oc(C(=O)N(Cc3ccccc3F)C3CCS(=O)(=O)C3)c(C)c2c1 (stereo not drawn) | – | inactive: -27.2%
Cc1sc2ncnc(N3CCC(C(=O)Nc4ccc(S(N)(=O)=O)cc4)CC3)c2c1C | – | inactive: -21.6%
Cc1cccc(C)c1NC(=O)CS(=O)CC(=O)NCCCc1ccccc1 (stereo not drawn) | inconclusive: 35.5 µM [inhibitor, single point] | –
Cc1ccc(CSCC(=O)N2CCN(c3cc(Cl)ccc3C)CC2)cc1 | inconclusive: 25.1 µM [inhibitor, single point] | –
Cn1c(CSCc2ccc(Cl)cc2Cl)n[nH]c1=S | – | inactive: 11.8%
N#CCOC(=O)C1CCN(S(=O)(=O)c2ccc3c(c2)OCCO3)CC1 | inconclusive: 4.47 µM [inhibitor, single point] | –
CC1CCC(C(C)C)C(OCC(O)CNC(C)c2ccccc2)C1 (stereo not drawn) | inconclusive: 31.6 µM [inhibitor, single point] | –
CCOc1ccc(/C=N/NC(=O)Cc2csc(Nc3cccc(C(F)(F)F)c3)n2)c(OCC)c1 | inconclusive: 2.24 µM [inhibitor, partial curve, poor fit] | –
CCn1c(C)nc2cc(C(=O)NNC(=S)NC(=O)c3ccc(OC)cc3)ccc21 | – | inactive: -18.5%
Cc1cc(C)n(-c2nnc3n2N=C(c2c[nH]c4ccccc24)CS3)n1 | inconclusive: 6.31 µM [inhibitor, single point] | –
CC(Oc1ccc(F)cc1F)C(=O)/C=C/N(C)C (stereo not drawn) | inconclusive: 5.62 µM [inhibitor, single point] | –
CCOC(=O)c1sc(N)nc1C(F)(F)F | – | inactive: 0.797%
CC(C(=O)Nc1ccc2nccnc2c1)N1C(=O)C2C3C=CC(C3)C2C1=O (stereo not drawn) | inconclusive: 10 µM [inhibitor, partial curve, poor fit] | –
